Results published in publication PMC4336329 (PLoS ONE, 2015).
Screen size: about 310,000 compounds; about 14,000 (4.5%) showed an effect of 50% or more. Effects have a minus sign here. The list shows a part of the results.

biological target: human ether-à-go-go-related gene (hERG) potassium channel (human, UniProt Q12809); experiment: primary screen, population patch clamp on CHO cells stably expressing hERG
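Further: peak tail current of the secondary pulse compared with the same well before compound.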

Chain of human ether-à-go-go-related gene (hERG) potassium channel (Q12809 whole entry, looked up): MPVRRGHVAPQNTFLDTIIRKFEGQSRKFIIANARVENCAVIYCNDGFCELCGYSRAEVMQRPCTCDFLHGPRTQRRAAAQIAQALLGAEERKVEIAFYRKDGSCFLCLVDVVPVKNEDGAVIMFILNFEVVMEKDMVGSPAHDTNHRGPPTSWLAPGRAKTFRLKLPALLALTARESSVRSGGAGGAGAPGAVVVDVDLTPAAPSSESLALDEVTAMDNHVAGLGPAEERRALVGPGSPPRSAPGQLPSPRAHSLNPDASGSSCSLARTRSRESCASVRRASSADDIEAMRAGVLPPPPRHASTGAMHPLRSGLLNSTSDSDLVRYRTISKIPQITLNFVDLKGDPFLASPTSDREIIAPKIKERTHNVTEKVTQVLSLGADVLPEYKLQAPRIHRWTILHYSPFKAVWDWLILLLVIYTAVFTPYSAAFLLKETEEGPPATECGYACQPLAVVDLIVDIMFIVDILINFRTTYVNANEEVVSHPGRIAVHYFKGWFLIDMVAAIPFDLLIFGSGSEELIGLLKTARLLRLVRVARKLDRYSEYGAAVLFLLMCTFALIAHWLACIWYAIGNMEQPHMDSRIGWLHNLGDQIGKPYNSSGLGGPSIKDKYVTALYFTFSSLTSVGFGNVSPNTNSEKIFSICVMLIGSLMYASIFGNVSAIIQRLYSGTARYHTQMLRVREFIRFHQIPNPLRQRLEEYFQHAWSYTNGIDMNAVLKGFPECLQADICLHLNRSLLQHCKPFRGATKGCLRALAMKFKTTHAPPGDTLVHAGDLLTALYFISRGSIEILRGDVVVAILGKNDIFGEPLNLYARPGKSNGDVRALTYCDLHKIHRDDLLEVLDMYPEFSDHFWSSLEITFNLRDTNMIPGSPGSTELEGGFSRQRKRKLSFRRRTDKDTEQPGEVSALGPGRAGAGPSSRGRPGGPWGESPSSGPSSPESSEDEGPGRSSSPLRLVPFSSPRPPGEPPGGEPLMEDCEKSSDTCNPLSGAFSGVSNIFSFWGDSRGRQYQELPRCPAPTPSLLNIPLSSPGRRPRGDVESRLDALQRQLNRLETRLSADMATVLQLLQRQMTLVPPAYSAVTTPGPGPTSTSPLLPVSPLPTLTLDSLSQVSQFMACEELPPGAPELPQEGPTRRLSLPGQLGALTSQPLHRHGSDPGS

Structure (SMILES)	hERG current change (%, negative = inhibition) at 10uM
CN(C)c1nc(N)nc(CSc2nnnn2-c2ccc(C(=O)O)cc2)n1	-7.38%
O=C(CSc1nnc(NC(=O)c2ccc(F)cc2)s1)NC1CC1	10.4%
CN(C(=O)CSc1nnc(-c2ccccc2)c(-c2ccccc2)n1)C1CCS(=O)(=O)C1 (centres unmarked)	-15.8%
CCOc1c(Cl)cnn(-c2ccc(C)cc2)c1=O	9.9%
CC(C)CCOc1ccc(C2CC(=O)N(C)C2=O)cc1 (centres unmarked)	1.2%
COc1ccccc1C(=O)NCC(=O)NCCc1ccc(Cl)cc1	-13%
Cc1ccc(C)c(NC(=O)CN(C)C(=O)c2cc3ccccc3o2)c1	-1.25%
Cc1ccccc1CS(=O)(=O)c1ccc(C(=O)N2CCC(C)CC2)cc1[N+](=O)[O-]	0.275%
Cc1ccccc1Nc1nc(N)nc(COC(=O)c2ccc(O)cc2)n1	-4.59%
CC(C)n1cc(CN2CCC(C(=O)Nc3cccc(-c4cccc(Cl)c4)c3)CC2)cn1	-85.1%
COc1ccc(N2CCN(S(=O)(=O)c3c(C)[nH]c(C)c3C(=O)N3CCCCC3)CC2)cc1	2.63%
[O-][n+]1ccccc1/C=C/c1ccccc1	3.06%
N=c1oc2ccc([N+](=O)[O-])cc2cc1C(=O)NCc1ccccc1	-4.7%
O=C(CCN1CCOCC1)NNC(=O)Nc1cccc(C(F)(F)F)c1	11.4%
CCCCOC(=O)Cn1c(=O)oc2ccc(C)cc21	5.97%
CCN(CC)C(=O)c1ccc(NC(=O)c2cn(-c3ccccc3)nc2-c2ccc(OC)cc2)cc1	10.4%
CN1CCN(CC(C)(C)NS(=O)(=O)c2ccc(Cl)cc2)CC1	-20.4%
N#Cc1c2n(c3c(=O)n(CC(=O)c4ccc(Br)cc4)cnc13)CCCC2	-21.3%
CC(=O)Nc1nnc(SCC(=O)NCC2CCCO2)s1 (centres unmarked)	-1.4%
CCOc1ccccc1-c1nnc(SCC(=O)NC2CC2)n1CC	16.1%
Cc1ccc(S(=O)(=O)NCCCN2CCOCC2)cc1C	1.39%
CCCCC(O)(c1ccc(OC)cc1)C(CN1CCOCC1)c1ccccc1.Cl (centres unmarked)	10.4%

Structure (SMILES)	hERG current change (%, negative = inhibition) at 10uM
CC(C)CC(COCc1cccc(Cl)c1)N1CCN(C(=O)c2ccc(C(F)(F)F)cc2)CCC1=O (centres unmarked)	-38.9%
CCOc1ccc(S(=O)(=O)N2CCCC(C(=O)N3CCOCC3)C2)cc1C (centres unmarked)	14.3%
O=C(N/N=C1\CCc2ccccc21)c1ccc(O)cc1	1.97%
CCC(C)C(NC(=O)C1CCC(C)CC1)C(=O)NCc1cccnc1 (centres unmarked)	4.79%
O=C(c1cc(C2CC2)on1)N1CCN(c2ccccc2)CC1	-14.1%
Cc1c(Cl)cccc1NC(=S)NCC(c1cccnc1)N(C)C (centres unmarked)	-4.13%
CC(C)c1ccc(NC(=O)C2CCCN2S(=O)(=O)c2ccccc2F)cc1 (centres unmarked)	-20.5%
Cc1ccc(-n2c(CNc3cccc(Cl)c3)n[nH]c2=S)cc1	15.4%
O=C(CCCC(=O)OCC(Cl)=C(Cl)Cl)Nc1cccc2ccccc12	12.4%
COc1ccc(N(CC(=O)NCc2ccco2)S(C)(=O)=O)cc1	4.49%
CCCCN(CCCC)S(=O)(=O)c1ccc(NC(=O)c2cccs2)cc1	13%
CC(C)c1ccc(C(=O)N2CCCN(C(=O)c3ccc(C(C)C)cc3)CC2)cc1	-32.9%
N#C/C(=C(/O)COC(=O)CSc1ccc2ccccc2c1)c1nc2ccccc2[nH]1	0.289%
COc1cccc(NC(=S)N(CCN(C)C)C(C)c2cccnc2)c1 (centres unmarked)	-4.56%
CCOC(=O)c1[nH]c(C)c(C(=O)N2CCN(c3ccccc3)CC2)c1C	-13.2%
COCCNC(=O)c1cc(-c2ccccc2)n(CC2CC(c3ccc(OC)cc3)=NO2)n1 (centres unmarked)	-10.7%
COc1ccc(NC(=O)CO/N=C/C(=O)Nc2ccccc2C)c([N+](=O)[O-])c1	-14.7%
CC(C)CC1=C/C(=C/c2ccc(-c3ccccc3)o2)C(=O)O1	3.19%
CCc1nnc(NS(=O)(=O)c2ccc(N/C=C\C(=O)c3ccc(C)cc3)cc2)s1	5.71%
CC(C)(C)c1nn2cnnc2n(/N=C/c2ccccc2)c1=O	0.246%
CC(Cc1ccccc1)C(=O)NCc1ccccn1 (centres unmarked)	7.34%
CCOc1nc(-c2ccccc2)ccc1-c1noc(-c2ccco2)n1	10.3%

Structure (SMILES)	hERG current change (%, negative = inhibition) at 10uM
O=C(OCC(=O)N1CCc2ccccc21)c1c2c(nc3ccccc13)CCCC2	1.29%
CCOCCCN(C(=O)c1snc(C(N)=O)c1N)C(C(=O)NC1CCCC1)c1ccc(OC)cc1 (centres unmarked)	-60.5%
CCOC(=O)C1CCN(C(=O)/C=C/c2ccccc2)CC1	-16.8%
COc1ccccc1Oc1coc2c(CN3CCN(C)CC3)c(O)ccc2c1=O	-23.2%
Cc1nc(-c2cccc(C(F)(F)F)c2)sc1C(=O)O	29.2%
Cc1ccc(S(=O)(=O)N2CCCC2)cc1[N+](=O)[O-]	-9.28%
COc1ccc(OC)c(S(=O)(=O)NCCCN2CCCC2=O)c1	8%
C#CCOCCOCCOCCNc1nc(N2CCN(C(=O)C([C@@H](C)CC)n3cc(C(N)CC(C)C)nn3)CC2)nc(N2CCN(C(=O)[C@H](CCCCN)n3cc(C(N)COC(=O)C(F)(F)F)nn3)CC2)n1.Cl (some centres unmarked)	-0.506%
O=C(NCC(c1ccco1)N1CCCCC1)c1cccc(S(=O)(=O)Nc2ccccc2Cl)c1 (centres unmarked)	-2.33%
CCOC(=O)c1c(-c2ccccc2)csc1NC(=O)c1ccc(S(=O)(=O)N2CC(C)OC(C)C2)cc1 (centres unmarked)	-3.2%
CCN(CC)S(=O)(=O)c1ccc(/C=C/C(=O)N(c2ccccn2)C2CCCCC2)cc1	21.7%
CCC(=O)N1CCN(c2ccc(Cl)cc2NC(=O)c2ccc(Br)o2)CC1	-11.8%
O=C1CC(=O)N(Cc2cccs2)C(=O)N1	4.3%
COC(=O)c1c(C)oc(C)c1S(=O)(=O)NCc1cccs1	4.21%
COc1ccc(NC(=S)Nc2cccc(C(C)=O)c2)cc1OC	-3.31%
CCn1nc(CC(=O)Nc2nnc(CC(=O)N3CCOCC3)s2)c2ccccc2c1=O	17.7%
CCOC(=O)c1cc(NC(=O)CCC(=O)O)ccc1N1CCCCC1	11.9%
CCOC(=O)c1c(S(=O)(=O)NCCc2ccco2)c(C)n(C)c1C	-1.25%
COc1ccc(N(Cc2cc(=O)[nH]c3ccccc23)C(=O)C(C)C)cc1	1.44%
COc1ccccc1[C@@H]1C(c2cccc(C)c2)=NN(c2ccccc2)[C@H]1C(=O)N1CCOC1=O	16.5%
O=S(=O)(c1ccc(Cl)cc1)N1CCN(C2CCCCCC2)CC1	-17.3%
COc1cc(/C=C/C(=O)OCC(=O)NC(=O)NCc2ccccc2)ccc1OCC#N	1.53%

Structure (SMILES)	hERG current change (%, negative = inhibition) at 10uM
COc1ccccc1C(C)NC(=O)CN(C)CC(=O)Nc1c(C)cccc1C (centres unmarked)	-11.6%
O=C(c1ccc(F)cc1)N1CCC2(CC1)OCCO2	19%
COc1ccc(NC(=O)CSc2ccc3nnc(-c4cccnc4)n3n2)c(OC)c1	-32.4%
O=C(NCCC1=CCCCC1)c1cc(-c2ccncc2)nc2ccccc12	6.78%
COC(=O)c1cc(CNC(=O)c2ccc(S(=O)(=O)N(C)c3ccccc3)cc2)ccc1OC	-13.2%
COc1cc(NS(=O)(=O)c2ccc(NC(=S)NC(C)=O)cc2)nc(OC)n1	10.9%
O=C(NCCCN1CCOCC1)c1cc2cc(Br)ccc2oc1=O	-17.5%
O=C(NC1CCCCC1)c1cnn2c(C(F)(F)F)cc(-c3ccco3)nc12	-29.1%
O=C(O)CN(c1ccc(F)cc1)S(=O)(=O)c1ccc2c(c1)OCCO2	-2.07%
Oc1ccc2oc3c(c2c1/C=N/n1cnnc1)CCCC3	-7.26%
COC(=O)C1=C(C)N(Cc2ccccc2)C(=NCCc2ccccn2)N[C@H]1c1cccc(F)c1	-60.4%
Br.N=C1CCCN1CC(=O)c1ccc(Br)cc1	-15.4%
CC(CNC(=O)c1ccccc1[N+](=O)[O-])NC(=O)c1ccccc1[N+](=O)[O-] (centres unmarked)	1.57%
CCOc1ccccc1N1CCN(CC(=O)c2c(N)n(C)c(=O)n(C)c2=O)CC1	-3.65%
Cl.NC(CO)C(=O)NNCc1ccc(O)c(O)c1O (centres unmarked)	14%
Cc1cccc(CSC2=NCCN2S(=O)(=O)c2ccc(F)cc2)c1	-0.802%
CCc1cccc(NC(=O)CCCn2nc(CC)n3c(cc4occc43)c2=O)c1	-38.8%
OCC[C@@H]1C[C@@H](O)[C@H](O)[C@]2(Cc3ccccc3O2)O1	11.3%
CNC(=O)NC(=O)C(NC1CCCc2ccccc21)c1ccccc1 (centres unmarked)	19.5%
O=C(NC1CCCCC1)c1cc(-n2cnnc2)ccc1Cl	5.4%
